From PubChem BioAssay (NCATS)
This list was built around the results that the source calls inconclusive (neither active nor inactive); the mix of calls is not that of the screen. For some of these results: Potencies beside an inconclusive call are fits to weak or partial responses and may not hold up. Calls of active or inactive are those of the source. Unless noted, calls follow the shape of the dose curve; as a rule, active = well fitted curve in the direction sought with a large enough effect; inconclusive = small, poorly fitted or top-dose-only effect, or another doubt; inactive = no such curve, though single readings can be large; an effect the other way counts as inactive or inconclusive.

How the values were obtained:
MKL-2 = assay: qHTS assay to identify novel small-molecules to repurpose for Merkel cell carcinoma treatment (AID 1296009); settings: MCC and control cell lines, CellTiter-Glo viability, 72 h; activity change, negative = cytotoxicity: at 46 µM (top of the series); also: nearly all actives have a fitted effect of over 60% in size; also: potency is read from the fitted curve at half-maximal effect; as to activity change, negative = cytotoxicity: % is scaled to controls: 0 for no effect and ±100 for the full control effect
Procedure, shortened: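 Cell viability measured by CellTiter-Glo following 72 hr compound treatment at 37 degree celsius, with NPC and MIPE libraries tested in 8- and 11-point concentration series.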

[1] = qHTS of pediatric cancer cell lines to identify multiple opportunities for drug repurposing: Primary screen for SK-N-MC cells (AID 1347093); settings: SK-N-MC viability, CellTiter-Glo luminescence, 48 h; activity change, negative = cytotoxic: at 46 µM (top of the series); also: potency is read from the fitted curve at half-maximal effect;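 as to activity change, negative = cytotoxic: plate controls were DMSO neutral control for no effect and bortezomib for full effect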
Procedure, shortened: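 Metabolically active cells were quantified by ATP-dependent luminescence (CellTiter-Glo, 15 min at room temperature) following 48 h treatment. Cells had been plated at 500-1,000 per well and settled for 5 h beforehand.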

[2] = Primary qHTS for small molecule stabilizers of the endoplasmic reticulum resident proteome: Secreted ER Calcium Modulated Protein (SERCaMP) assay (AID 1508630); settings: SH-SY5Y GLuc-SERCaMP (Gaussia luciferase released on ER calcium loss) secretion, thapsigargin, luminescence; activity change, negative = inhibition: at 38.4 µM (top of the series) unless noted; also: potency is read from the fitted curve at half-maximal effect; as to activity change, negative = inhibition: % is scaled to controls: 0 for no effect and ±100 for the full control effect
Procedure, shortened: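 The SH-SY5Y reporter protocol was run at 3 concentrations up to 38.3 uM (primary) or 11 concentrations (follow-up): 16 h compound, 100 nM thapsigargin for 4 h, then extracellular luciferase luminescence.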

[3] = qHTS of pediatric cancer cell lines to identify multiple opportunities for drug repurposing: Primary screen for A673 cells (AID 1347092); settings: A673 Ewing sarcoma viability, CellTiter-Glo ATP luminescence, 48 h; activity change, negative = cytotoxic: at 46 µM (top of the series); also: nearly all actives have a fitted effect of over 45% in size; also: potency is read from the fitted curve at half-maximal effect; as to activity change, negative = cytotoxic: % is scaled to controls: 0 for no effect and ±100 for the full control effect
Procedure, shortened: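 Cells are plated, rested 5 h, dosed by pintool, incubated 48 h, then lysed with CellTiter-Glo and read by luminescence. DMSO is the neutral control; bortezomib at 2.3 uM final is the positive control.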

[4] = qHTS of pediatric cancer cell lines to identify multiple opportunities for drug repurposing: Primary screen for Rh41 cells (AID 1347108); also: nearly all actives have a fitted effect of over 70% in size; also: potency is read from the fitted curve at half-maximal effect;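 as to activity change, negative = cytotoxic: luminescence drop marks cytotoxic hits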
Procedure, shortened: (§1)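 Readout: CellTiter-Glo luminescence, 48 h treatment. Controls DMSO (neutral) and bortezomib 2.3 µM final (positive). Potency and efficacy taken from primary-screen concentration-response curves.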

[5] = Primary qHTS for inhibitors of nuclear receptor binding SET domain protein 2 (NSD2) in an RCH-ACV wild type WT cells (2C) (AID 1645877); settings: activity change, negative = cell killing: at 44.9 µM (top of the series) unless noted; also: nearly all actives have a fitted effect of over 70% in size; also: potency is read from the fitted curve at half-maximal effect
[6] = Drug repurposing screens with cells derived from glioblastoma tumor samples (AID 1345199); settings: GBM patient neurospheres viability, ATP luminescence, 48 h; Potency: tumour line A unless noted; activity, negative = cell killing: at 46 µM (top of the series), tumour line A unless noted; also: nearly all actives have a fitted effect of over 40% in size; also: potency is read from the fitted curve at half-maximal effect; as to activity, negative = cell killing: % is scaled to controls: 0 for no effect and ±100 for the full control effect
Procedure, shortened: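 Primary testing used CD133+ neurospheres from four GBM patients, seven concentrations, 48 h exposure and ATP-based viability; confirmation added three slower-growing patient lines.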

[7] = qHTS of pediatric cancer cell lines to identify multiple opportunities for drug repurposing: Primary screen for BT-37 cells (AID 1347094);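 also: plate controls were DMSO for no effect and bortezomib for full effect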
Procedure, shortened: as §1

[8] = qHTS of pediatric cancer cell lines to identify multiple opportunities for drug repurposing: Primary screen for Saos-2 cells (AID 1347097); settings: Saos-2 viability, CellTiter-Glo ATP luminescence, 48 h; activity change, negative = cytotoxic: at 46 µM (top of the series); also: nearly all actives have a fitted effect of over 40% in size; also: potency is read from the fitted curve at half-maximal effect
Procedure, shortened: as §1

[9] = qHTS of pediatric cancer cell lines to identify multiple opportunities for drug repurposing: Primary screen for OHS-50 cells (AID 1347103); settings: OHS-50 osteosarcoma viability, CellTiter-Glo luminescence, 48 h; activity change, negative = cytotoxic: at 57.3 µM (top of the series); also: nearly all actives have a fitted effect of over 40% in size; also: potency is read from the fitted curve at half-maximal effect;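 as to activity change, negative = cytotoxic: plate controls were DMSO neutral control for no effect and bortezomib positive control for full effect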
Procedure, shortened: (§2)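 Cells (500-1,000/well) rested 5 h, then received compounds for 48 h; metabolically active cells were measured by CellTiter-Glo luminescence. Final concentrations spanned up to 46 µM (MIPE, 11-point) or 0.59 nM-46 µM (NPC, 8-point) in primary screens, 11-point in follow-ups.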

[10] = Primary qHTS for inhibitors of nuclear receptor binding SET domain protein 2 (NSD2) in an isogenic RCH-ACV NSD2 p.E1099K mutant (9B) (AID 1645876); settings: activity change, negative = viability loss: at 44.9 µM (top of the series) unless noted; also: nearly all actives have a fitted effect of over 70% in size; also: potency is read from the fitted curve at half-maximal effect
DIV17 = assay: qHTS profiling for inhibitors of Plasmodium falciparum proliferation (AID 504749); also: nearly all actives have a fitted effect of over 60% in size; also: potency is read from the fitted curve at half-maximal effect;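 as to activity, negative = inhibition: 0% = DMSO vehicle and full inhibition = artemisinin control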; settings: P. falciparum in erythrocytes, SYBR Green DNA, 72 h; activity, negative = inhibition: at 28.7 µM (top of the series)
Procedure, shortened: (§3)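 In a 72 h erythrocytic culture (37 C, humidified, 5% CO2) at 2.5% hematocrit and 0.3% starting parasitemia, compounds were tested; SYBR Green I in detergent lysis buffer stained parasite DNA overnight.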

W2 = assay: as above; settings: P. falciparum in erythrocytes, SYBR Green DNA, 72 h; activity, negative = inhibition: at 28.7 µM (top of the series)
Procedure, shortened: as §3

[11] = biological target: Cytochrome P450 2D6 (Homo sapiens) (UniProt P10635); assay: Cytochrome P450 family 2 subfamily D member 6 (CYP2D6) small molecule antagonists: luciferase biochemical (cell-free) qHTS assay (AID 1645840; active = well fitted curve in the direction sought with a large enough effect in the repeat runs; inconclusive = weak or mixed curves; inactive = no such curve, though single readings can be large; an effect the other way counts as inactive or inconclusive; also: nearly all actives have a fitted effect of over 55% in size; also: potency is read from the fitted curve at half-maximal effect)
UniProt P10635, sequence (P10635 whole entry, looked up): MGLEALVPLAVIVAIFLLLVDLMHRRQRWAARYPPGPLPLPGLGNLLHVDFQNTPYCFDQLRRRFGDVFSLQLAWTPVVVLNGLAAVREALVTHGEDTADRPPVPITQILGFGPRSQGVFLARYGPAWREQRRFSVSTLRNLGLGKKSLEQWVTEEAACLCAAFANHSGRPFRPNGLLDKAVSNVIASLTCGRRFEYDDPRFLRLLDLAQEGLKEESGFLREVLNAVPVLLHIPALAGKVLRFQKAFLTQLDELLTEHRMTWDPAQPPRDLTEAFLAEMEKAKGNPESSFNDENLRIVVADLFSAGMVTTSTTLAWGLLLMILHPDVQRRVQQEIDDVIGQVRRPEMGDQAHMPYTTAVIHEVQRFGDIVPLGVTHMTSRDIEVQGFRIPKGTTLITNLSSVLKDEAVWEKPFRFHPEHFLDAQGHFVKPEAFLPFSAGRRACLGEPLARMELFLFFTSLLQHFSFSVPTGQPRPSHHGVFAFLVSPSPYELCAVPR
Procedure, shortened: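 P450-Glo CYP2D6 system: proluciferin substrate converted by enzyme to luciferin, read by luminescence proportional to activity. Enzyme-substrate mix with compound 10 min at room temperature, then NADPH regeneration 1 h before detection reagent.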

[12] = A High-Content qHTS Against Drug Library for the Identification of Small Molecules that Inhibit DYT1 Early Onset Primary Dystonia-Associated Cell Pathology (AID 1645839; calls by dose curve)
Procedure, shortened: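 High-content imaging quantified EGFP-TorsinA mislocalization in HEK293-derived cells inducibly expressing DYT1 mutant torsinA, after 48 h exposure to compound given together with tetracycline induction. Cell count served as a toxicity channel alongside %pathology.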

[13] = qHTS of pediatric cancer cell lines to identify multiple opportunities for drug repurposing: Primary screen for SK-N-SH cells (AID 1347098); also: nearly all actives have a fitted effect of over 65% in size; also: potency is read from the fitted curve at half-maximal effect
Procedure, shortened: as §2

SKOV3 = assay: Primary qHTS to identify gynecologic anti-cancer compounds using libraries of approved drugs and bioactive compounds (AID 1345084); settings: Gynecologic cancer cell panel viability, ATPlite luminescence, 48 h; series mostly up to 57.5 µM; also: nearly all actives have a fitted effect of over 55% in size; also: potency is read from the fitted curve at half-maximal effect
Procedure, shortened: (§4)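 ATP-based viability (ATPlite), 1,000 cells/well, 16 h pre-incubation, 48 h compound at 37 C, 5% CO2, 15 min RT before read.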

CAOV3 = assay: as above; settings: Gynecologic cancer cell panel viability, ATPlite luminescence, 48 h; series mostly up to 57.5 µM
Procedure, shortened: as §4
Tags tell the direction and shape of the fitted curve.

CC1c2ccccc2CN1NC(=O)c1ccc(Cl)c(S(N)(=O)=O)c1 (stereo not drawn)
inactive: Potency (MKL-2)

O=C(O)CCCC[P+](c1ccccc1)(c1ccccc1)c1ccccc1
inactive: Potency [1] | Potency [2] | Potency (MKL-2)

CC(=O)Nc1ccccc1
inactive: Potency [3] | Potency [1] | Potency [4] | Potency [5] | Potency (MKL-2) | Potency [6]

NCc1ccc(S(N)(=O)=O)cc1
inactive: Potency [7] | Potency [9] | Potency [4] | Potency (MKL-2)
inconclusive: Potency [8] 23.7 µM [cytotoxic, single point] | Potency [10] 23.7 µM [inhibitor, single point] | Potency [5] 33.5 µM [inhibitor, single point] | Potency [6] 0.0562 µM [inhibitor, full curve, poor fit] | Potency (DIV17) 8.09 µM [inhibitor, single point] | Potency (W2) 5.73 µM [inhibitor, single point]

Nc1ccc(C(=O)N2CC3CC(CN(Cc4ccccc4)C3)C2)cc1
inconclusive: Potency [11] 34.7 µM [inhibitor, partial curve, poor fit]
inactive: Potency [9] | Potency (MKL-2)

CCCCOc1cc(C(=O)OCCN(CC)CC)ccc1N
inactive: Potency (MKL-2) | Potency (DIV17) | Potency (W2)
inconclusive: Potency [9] 24.6 µM [cytotoxic, partial curve, poor fit] | Potency [10] 29.9 µM [inhibitor, single point] | Potency [5] 33.5 µM [inhibitor, single point]

CCCCCCCC(=O)OCC(COC(=O)CCCCCCC)OC(=O)CCCCCCC
inconclusive: activity change, negative = cytotoxic [1] -35.8% [cytotoxic] | Potency [6] 10 µM [inhibitor, partial curve] | Potency (W2) 4.26 µM [inhibitor, single point]
inactive: Potency [12] | Potency [5] | Potency (MKL-2)

Cc1c(NC(C)C)c(=O)n(-c2ccccc2)n1C
inactive: Potency [7] | Potency [13] | Potency [10] | Potency (MKL-2)
inconclusive: Potency [8] 8.41 µM [cytotoxic, partial curve] | Potency [2] 2.24 µM [inhibitor, full curve, poor fit] | Potency [11] 34.7 µM [inhibitor, partial curve, poor fit] | Potency (SKOV3) 2.51 µM [cytotoxic, partial curve, poor fit] | Potency [6] 8.91 µM [inhibitor, full curve, poor fit]

CCCOc1ccc2c(c1)CC[C@@H]1[C@@H]2CC[C@]2(C)C(OC)CC[C@@H]12 (stereo partly drawn)
inconclusive: Potency [3] 0.668 µM [cytotoxic, full curve, poor fit] | Potency [9] 19.5 µM [cytotoxic, single point] | Potency [2] 31.6 µM [inhibitor, full curve]
inactive: Potency [8] | Potency [5] | Potency (MKL-2)

Cc1onc(-c2c(Cl)cccc2Cl)c1C(=O)Cl
inconclusive: Potency (CAOV3) 3.16 µM [cytotoxic, single point]
inactive: Potency [1] | Potency [13] | Potency (MKL-2)

CC(C)NCC(O)c1cc(O)cc(O)c1 (stereo not drawn)
inactive: Potency (SKOV3)
inconclusive: Potency [1] 33.5 µM [cytotoxic, single point] | Potency [2] 31.6 µM [inhibitor, partial curve, poor fit] | Potency [11] 12.3 µM [inhibitor, partial curve] | Potency (MKL-2) 3.76 µM [inhibitor, full curve] | Potency [6] 14.1 µM [inhibitor, partial curve, poor fit]

O=C(O)CCCCC(CCSCc1ccccc1)SCc1ccccc1 (stereo not drawn)
inconclusive: Potency [3] 9.35 µM [cytotoxic, partial curve, poor fit] | Potency [8] 18.7 µM [cytotoxic, partial curve] | Potency [13] 42.9 µM [cytotoxic, single point] | Potency [9] 2.43 µM [cytotoxic, full curve] | Potency [4] 18.7 µM [cytotoxic, partial curve] | Potency (MKL-2) 10.5 µM [inhibitor, partial curve]

COC(=O)c1ccccc1C(=O)c1ccc(OCCN2CCCCC2)cc1
inactive: Potency [3] | Potency [9] | Potency [12] | Potency (MKL-2)
active: Potency [6] 7.08 µM
inconclusive: Potency (SKOV3) 35.5 µM [cytotoxic, single point] | Potency (DIV17) 21.3 µM [inhibitor, partial curve, poor fit] | Potency (W2) 7.57 µM [inhibitor, partial curve]

CC(C)CCCC(C)NCCC(C)C (stereo not drawn)
inactive: Potency [3] | Potency [10] | Potency (MKL-2)

COCCOCC(OC)OC
inconclusive: Potency (CAOV3) 31.6 µM [rising, partial curve, poor fit]
inactive: Potency [7] | Potency [11] | Potency (MKL-2) | Potency (SKOV3)

C/C(=C(\CCO)SS/C(CCO)=C(\C)N(C=O)Cc1cnc(C)nc1N)N(C=O)Cc1cnc(C)nc1N
inconclusive: Potency [11] 38.9 µM [inhibitor, single point]
inactive: Potency [1] | Potency [13] | Potency [5] | Potency (MKL-2) | Potency [6]
